The supplement of paper PMC4604168 (melanoma cell lines)
Some of the results follow. Single values are uncertain, as repeats are few or missing.

How the values were obtained:
Assay in all cases: cell count relative to DMSO control; melanoma cells; higher = more viable cells
Settings in all cases: library dose: standard library concentration; 72 h
[1] = test system: G361
[2] = test system: IPC-298
[3] = test system: IST-MEL1
[4] = test system: LB2518-MEL
[5] = test system: LOXIMVI
[6] = test system: MEL-HO
[7] = test system: MZ2-MEL
[8] = test system: MeWo
[9] = test system: RPMI7951
[10] = test system: RVH-421
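Note: cells treated in 1,536-well plates, then fixed and DAPI-stained, with nuclei counted from automated high-throughput microscope images.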

Row | Structure (SMILES) | cell count [1] [%] | cell count [2] [%] | cell count [3] [%] | cell count [4] [%] | cell count [5] [%] | cell count [6] [%] | cell count [7] [%] | cell count [8] [%] | cell count [9] [%] | cell count [10] [%]
1 | CN1CCN(c2ccc3nc(-c4c(N)c5c(F)cccc5[nH]c4=O)[nH]c3c2)CC1 [Dovitinib] + O=C(Oc1ccc([N+](=O)[O-])cc1)N1CCC(C(O)(c2ccc3c(c2)OCO3)c2ccc3c(c2)OCO3)CC1 [JZL184] (first compound 0.5 µM, partner dose 5 µM) | 54.4 | 78.8 | 79.2 | 48.1 | 75 | 75 | 60.7 | 49 | 78.5 | 89.8
2 | Cc1cc(Nc2cc(N3CCN(C)CC3)nc(Sc3ccc(NC(=O)C4CC4)cc3)n2)n[nH]1 [Tozasertib] + O=C(Oc1ccc([N+](=O)[O-])cc1)N1CCC(C(O)(c2ccc3c(c2)OCO3)c2ccc3c(c2)OCO3)CC1 [JZL184] (first compound 0.03 µM, partner dose 5 µM) | 88.5 | 101 | 97.8 | 82.7 | 79 | 92.4 | 85.8 | 67.7 | 59.8 | 82.2
3 | Cn1c(Nc2ccc(C(F)(F)F)cc2)nc2cc(Oc3ccnc(-c4ncc(C(F)(F)F)[nH]4)c3)ccc21 + C/C(O)=C(\C#N)C(=O)Nc1cc(Br)ccc1Br [LFM-A13] (first compound 0.4 µM, partner dose 10 µM) | 39.8 | 51.2 | 81.7 | 32.9 | 71.9 | 61.2 | 59.2 | 70.4 | 60.4 | 65.7
4 | Clc1ccc(Nc2nnc(Cc3ccncc3)c3ccccc23)cc1 [vatalanib] + C/C(O)=C(\C#N)C(=O)Nc1cc(Br)ccc1Br [LFM-A13] (first compound 10 µM, partner dose 10 µM) | 80 | 70.8 | 76.2 | 67 | 84.3 | 64.6 | 64.7 | 57.5 | 85.7 | 77.1
5 | C#Cc1cccc(Nc2ncnc3cc(OCCOC)c(OCCOC)cc23)c1 [erlotinib] + C[As](C)SC[C@H](NC(=O)CC[C@H](N)C(=O)O)C(=O)NCC(=O)O [Darinaparsin] (first compound 4 µM, partner dose 2 µM) | 55.1 | 58.2 | 81.9 | 62.6 | 80.9 | 64.5 | 71 | 67.3 | 97.6 | 64.8
6 | Clc1ccc(Nc2nnc(Cc3ccncc3)c3ccccc23)cc1 [vatalanib] + C[As](C)SC[C@H](NC(=O)CC[C@H](N)C(=O)O)C(=O)NCC(=O)O [Darinaparsin] (first compound 10 µM, partner dose 2 µM) | 73.2 | 70.2 | 75 | 72.7 | 108 | 54.4 | 61.2 | 67.7 | 71 | 65.1
7 | Cc1cc(Nc2cc(N3CCN(C)CC3)nc(Sc3ccc(NC(=O)C4CC4)cc3)n2)n[nH]1 [Tozasertib] + C[As](C)SC[C@H](NC(=O)CC[C@H](N)C(=O)O)C(=O)NCC(=O)O [Darinaparsin] (first compound 0.03 µM, partner dose 2 µM) | 83.1 | 91.7 | 98.5 | 72.8 | 97.9 | 81.2 | 75.4 | 71.6 | 97.1 | 70.7
8 | C=CCn1c(=O)c2cnc(Nc3ccc(N4CCN(C)CC4)cc3)nc2n1-c1cccc(C(C)(C)O)n1 + O=C(Oc1ccc([N+](=O)[O-])cc1)N1CCC(C(O)(c2ccc3c(c2)OCO3)c2ccc3c(c2)OCO3)CC1 [JZL184] (first compound 0.1 µM, partner dose 5 µM) | 92.5 | 74.3 | 95.1 | 61.5 | 95.3 | 104 | 90.6 | 63.8 | 72.6 | 82.4
9 | CO[C@H]1C[C@@H]2CC[C@@H](C)[C@@](O)(O2)C(=O)C(=O)N2CCCC[C@H]2C(=O)O[C@H]([C@H](C)C[C@@H]2CC[C@@H](OCCO)[C@H](OC)C2)CC(=O)[C@H](C)/C=C(\C)[C@@H](O)[C@@H](OC)C(=O)[C@H](C)C[C@H](C)/C=C/C=C/C=C/1C [everolimus] + Cc1cc(SCc2sc(-c3ccc(C(F)(F)F)c(F)c3)nc2C)ccc1OCC(=O)O [GW0742] (first compound 0.1 µM, partner dose 10 µM) | 69.5 | 85.4 | 76 | 92.6 | 104 | 80.7 | 88.8 | 87.2 | 78.8 | 130
10 | CC(C)C[C@H](NC(=O)[C@H](Cc1ccccc1)NC(=O)c1cnccn1)B(O)O [Bortezomib] + O=C(Oc1ccc([N+](=O)[O-])cc1)N1CCC(C(O)(c2ccc3c(c2)OCO3)c2ccc3c(c2)OCO3)CC1 [JZL184] (first compound 0.005 µM, partner dose 5 µM) | 0.664 | 12.6 | 12.4 | 4.57 | 26 | 28.6 | 6.33 | 8.56 | 7.5 | 4.55
11 | COc1cc2ncnc(Nc3ccc(Oc4ccccc4)cc3)c2cc1OC + O=C(Oc1ccc([N+](=O)[O-])cc1)N1CCC(C(O)(c2ccc3c(c2)OCO3)c2ccc3c(c2)OCO3)CC1 [JZL184] (first compound 10 µM, partner dose 5 µM) | 61.9 | 72.8 | 91.3 | 91.9 | 79.2 | 85.3 | 67.5 | 82.8 | 68.8 | 122
12 | CN1CCN(c2ccc3nc(-c4c(N)c5c(F)cccc5[nH]c4=O)[nH]c3c2)CC1 [Dovitinib] + C/C(O)=C(\C#N)C(=O)Nc1cc(Br)ccc1Br [LFM-A13] (first compound 0.5 µM, partner dose 10 µM) | 49.5 | 65.3 | 57.8 | 44.5 | 100 | 69.5 | 53.9 | 58 | 79.4 | 96.3
13 | Oc1cc(-c2nc(-c3ccccc3)[nH]c2-c2ccncc2)ccc1Cl + C/C(O)=C(\C#N)C(=O)Nc1cc(Br)ccc1Br [LFM-A13] (first compound 1 µM, partner dose 10 µM) | 56.7 | 88.5 | 89.5 | 102 | 105 | 94.1 | 99.8 | 87.1 | 85.8 | 86.6
14 | CC(C)C[C@H](NC(=O)[C@H](Cc1ccccc1)NC(=O)c1cnccn1)B(O)O [Bortezomib] + N.N.[Cl][Pt][Cl] [cisplatin] (first compound 0.005 µM, partner dose 8 µM) | 1.63 | 10.9 | 7.49 | 3.89 | 57.6 | 30.3 | 6.18 | 9.8 | 11.3 | 9.14
15 | CC(C)C[C@H](NC(=O)[C@H](Cc1ccccc1)NC(=O)c1cnccn1)B(O)O [Bortezomib] + C[As](C)SC[C@H](NC(=O)CC[C@H](N)C(=O)O)C(=O)NCC(=O)O [Darinaparsin] (first compound 0.005 µM, partner dose 2 µM) | 1.38 | 12.2 | 10.8 | 3.51 | 18.7 | 42.7 | 7.43 | 17.7 | 5.91 | 16.4
16 | C=CCn1c(=O)c2cnc(Nc3ccc(N4CCN(C)CC4)cc3)nc2n1-c1cccc(C(C)(C)O)n1 + Cc1cc(SCc2sc(-c3ccc(C(F)(F)F)c(F)c3)nc2C)ccc1OCC(=O)O [GW0742] (first compound 0.1 µM, partner dose 10 µM) | 87.3 | 82.7 | 103 | 61.9 | 92.7 | 81 | 99.8 | 65 | 60.7 | 115
17 | O=C1NC(=O)/C(=C/c2ccc(-c3ccc(F)cc3O)o2)S1 + O=C(Oc1ccc([N+](=O)[O-])cc1)N1CCC(C(O)(c2ccc3c(c2)OCO3)c2ccc3c(c2)OCO3)CC1 [JZL184] (first compound 5 µM, partner dose 5 µM) | 93.4 | 97.6 | 112 | 106 | 85.3 | 81.7 | 104 | 91.4 | 67.4 | 106
18 | COCC[n+]1c2c(n(Cc3cnccn3)c1C)C(=O)c1ccccc1C2=O + Cc1cc(SCc2sc(-c3ccc(C(F)(F)F)c(F)c3)nc2C)ccc1OCC(=O)O [GW0742] (first compound 0.002 µM, partner dose 10 µM) | 82.3 | 54.4 | 47.9 | 16.5 | 55.7 | 94.1 | 28.6 | 83.4 | 51.7 | 76.4
19 | C[C@@H]1CCN(C(=O)CC#N)C[C@@H]1N(C)c1ncnc2[nH]ccc12 + Cc1cc(SCc2sc(-c3ccc(C(F)(F)F)c(F)c3)nc2C)ccc1OCC(=O)O [GW0742] (first compound 5 µM, partner dose 10 µM) | 99.8 | 111 | 97.4 | 132 | 120 | 103 | 101 | 89.5 | 104 | 94.1
20 | COCC[n+]1c2c(n(Cc3cnccn3)c1C)C(=O)c1ccccc1C2=O + C/C(O)=C(\C#N)C(=O)Nc1cc(Br)ccc1Br [LFM-A13] (first compound 0.002 µM, partner dose 10 µM) | 89.1 | 65.7 | 55.6 | 55.6 | 78.9 | 105 | 28.1 | 65.4 | 63.8 | 100
21 | Nc1ccn([C@@H]2O[C@H](CO)[C@@H](O)C2(F)F)c(=O)n1 [gemcitabine] + C[As](C)SC[C@H](NC(=O)CC[C@H](N)C(=O)O)C(=O)NCC(=O)O [Darinaparsin] (first compound 0.002 µM, partner dose 2 µM) | 50.5 | 45.8 | 39.6 | 63.2 | 69.7 | 50.5 | 66.3 | 46.6 | 62.6 | 48
